How the values were obtained:
Experiment in all cases: cells
CCRF-CEM [1] = assay type: functional; conditions: Homo sapiens, time 48 hrs
MOLT-4 = assay type: functional; conditions: Homo sapiens, time 48 hrs
SR [2] = assay type: functional; conditions: Homo sapiens, time 48 hrs
A549 [3] = assay type: functional; conditions: Homo sapiens, time 48 hrs
EKVX [4] = assay type: functional; conditions: Homo sapiens, time 48 hrs
NCI-H322M = assay type: functional; conditions: Homo sapiens, time 48 hrs
HCT-116 [5] = assay type: functional; conditions: Homo sapiens, time 48 hrs
SW-620 = assay type: functional; conditions: Homo sapiens, time 48 hrs
SF-268 [6] = assay type: functional; conditions: Homo sapiens, time 48 hrs
SNB-19 = assay type: functional; conditions: Homo sapiens, time 48 hrs
SNB-75 = assay type: functional; conditions: Homo sapiens, time 48 hrs
U-251 = assay type: functional; conditions: Homo sapiens, time 48 hrs
Malme-3M [7] = assay type: functional; conditions: Homo sapiens, time 48 hrs
M14 [8] = assay type: functional; conditions: Homo sapiens, time 48 hrs
SK-MEL-5 [9] = assay type: functional; conditions: Homo sapiens, time 48 hrs
UACC-257 = assay type: functional; conditions: Homo sapiens, time 48 hrs
UACC-62 [10] = assay type: functional; conditions: Homo sapiens, time 48 hrs
OVCAR-3 [11] = assay type: functional; conditions: Homo sapiens, time 48 hrs
OVCAR-4 = assay type: functional; conditions: Homo sapiens, time 48 hrs
OVCAR-5 = assay type: functional; conditions: Homo sapiens, time 48 hrs
NCI/ADR-RES [12] = assay type: functional; conditions: Homo sapiens, time 48 hrs
786-0 = assay type: functional; conditions: Homo sapiens, time 48 hrs
A498 = assay type: functional; conditions: Homo sapiens, time 48 hrs
RXF 393 = assay type: functional; conditions: Homo sapiens, time 48 hrs
PC-3 [13] = assay type: functional; conditions: Homo sapiens, time 48 hrs
DU-145 = assay type: functional; conditions: Homo sapiens, time 48 hrs
MDA-MB-231 = assay type: functional; conditions: Homo sapiens, time 48 hrs
BT-549 [14] = assay type: functional; conditions: Homo sapiens, time 48 hrs
MDA-MB-468 = assay type: functional; conditions: Homo sapiens, time 48 hrs
CCRF-CEM [15] = assay type: functional; conditions: Homo sapiens, time 48 hrs; remark: listed apart in the source
A549 [16] = assay type: functional; conditions: Homo sapiens, time 48 hrs; remark: listed apart in the source
EKVX [17] = assay type: functional; conditions: Homo sapiens, time 48 hrs; remark: listed apart in the source
HOP-62 = assay type: functional; conditions: Homo sapiens, time 48 hrs
HOP-92 [18] = assay type: functional; conditions: Homo sapiens, time 48 hrs
NCI-H23 [19] = assay type: functional; conditions: Homo sapiens, time 48 hrs
NCI-H522 = assay type: functional; conditions: Homo sapiens, time 48 hrs
COLO 205 = assay type: functional; conditions: Homo sapiens, time 48 hrs
HCC 2998 = assay type: functional; conditions: Homo sapiens, time 48 hrs
KM12 = assay type: functional; conditions: Homo sapiens, time 48 hrs
SF-268 [20] = assay type: functional; conditions: Homo sapiens, time 48 hrs; remark: listed apart in the source
SF-295 [21] = assay type: functional; conditions: Homo sapiens, time 48 hrs
LOX IMVI = assay type: functional; conditions: Homo sapiens, time 48 hrs
Malme-3M [22] = assay type: functional; conditions: Homo sapiens, time 48 hrs; remark: listed apart in the source
M14 [23] = assay type: functional; conditions: Homo sapiens, time 48 hrs; remark: listed apart in the source
UACC-62 [24] = assay type: functional; conditions: Homo sapiens, time 48 hrs; remark: listed apart in the source
OVCAR-3 [25] = assay type: functional; conditions: Homo sapiens, time 48 hrs; remark: listed apart in the source
OVCAR-8 = assay type: functional; conditions: Homo sapiens, time 48 hrs
UO-31 = assay type: functional; conditions: Homo sapiens, time 48 hrs
PC-3 [26] = assay type: functional; conditions: Homo sapiens, time 48 hrs; remark: listed apart in the source
BT-549 [27] = assay type: functional; conditions: Homo sapiens, time 48 hrs; remark: listed apart in the source
K562 = conditions: Homo sapiens, K562, 48 h
HL-60(TB) = conditions: Homo sapiens, HL-60, 48 h, read-out: LC50
RPMI-8226 = conditions: Homo sapiens, RPMI-8226, 48 h, read-out: LC50
SR [28] = conditions: Homo sapiens, 48 h, read-out: LC50
HOP-92 [29] = conditions: Homo sapiens, HOP-92, 48 h, read-out: LC50
NCI-H23 [30] = conditions: Homo sapiens, NCI-H23, 48 h, read-out: LC50
HCT-116 [31] = conditions: Homo sapiens, HCT-116, 48 h, read-out: LC50
HCT-15 = conditions: Homo sapiens, HCT-15, 48 h, read-out: LC50
HT-29 = conditions: Homo sapiens, HT-29, 48 h, read-out: LC50
SF-295 [32] = conditions: Homo sapiens, SF-295, 48 h, read-out: LC50
SK-MEL-28 = conditions: Homo sapiens, SK-MEL-28, 48 h, read-out: LC50
SK-MEL-5 [33] = conditions: Homo sapiens, SK-MEL-5, 48 h, read-out: LC50
NCI/ADR-RES [34] = conditions: Homo sapiens, 48 h, read-out: LC50
CAKI-1 = conditions: Homo sapiens, CAKI-1, 48 h, read-out: LC50
TK-10 = conditions: Homo sapiens, TK-10, 48 h, read-out: LC50

NS(=O)(=O)c1ccc(-n2cc(/C=N/Nc3ccc(C(=O)O)cc3)c(-c3ccccc3)n2)cc1
GI50 (CCRF-CEM [1]): 3.42 µM
GI50 (MOLT-4): 2.5 µM
GI50 (SR [2]): 2.54 µM
GI50 (A549 [3]): 3.79 µM
GI50 (EKVX [4]): 3.62 µM
GI50 (NCI-H322M): 4.31 µM
GI50 (HCT-116 [5]): 3.11 µM
GI50 (SW-620): 3.2 µM
GI50 (SF-268 [6]): 3.07 µM
GI50 (SNB-19): 4.23 µM
GI50 (SNB-75): 4.54 µM
GI50 (U-251): 3.55 µM
GI50 (Malme-3M [7]): 4.18 µM
GI50 (M14 [8]): 2.14 µM
GI50 (SK-MEL-5 [9]): 1.96 µM
GI50 (UACC-257): 14.1 µM
GI50 (UACC-62 [10]): 4.99 µM
GI50 (OVCAR-3 [11]): 1.93 µM
GI50 (OVCAR-4): 7.35 µM
GI50 (OVCAR-5): 4.12 µM
GI50 (NCI/ADR-RES [12]): 2.44 µM
GI50 (786-0): 2.69 µM
GI50 (A498): 15.3 µM
GI50 (RXF 393): 2.09 µM
GI50 (PC-3 [13]): 3.49 µM
GI50 (DU-145): 3.25 µM
GI50 (MDA-MB-231): 3.2 µM
GI50 (BT-549 [14]): 6.39 µM
GI50 (MDA-MB-468): 2.49 µM
TGI (CCRF-CEM [15]): 19.2 µM
TGI (A549 [16]): > 100 µM
TGI (EKVX [17]): 58.3 µM
TGI (HOP-62): 30 µM
TGI (HOP-92 [18]): 31.3 µM
TGI (NCI-H23 [19]): 12.5 µM
TGI (NCI-H522): 4.39 µM
TGI (COLO 205): 43.1 µM
TGI (HCC 2998): 4.53 µM
TGI (KM12): 3.75 µM
TGI (SF-268 [20]): 15 µM
TGI (SF-295 [21]): 15.6 µM
TGI (LOX IMVI): 3.04 µM
TGI (Malme-3M [22]): 16.2 µM
TGI (M14 [23]): 4.96 µM
TGI (UACC-62 [24]): 18 µM
TGI (OVCAR-3 [25]): 4.73 µM
TGI (OVCAR-8): 56.1 µM
TGI (UO-31): 22 µM
TGI (PC-3 [26]): 47.5 µM
TGI (BT-549 [27]): 23.6 µM
TGI (K562): > 100 µM
CC50 (HL-60(TB)): > 100 µM
CC50 (RPMI-8226): > 100 µM
CC50 (SR [28]): > 100 µM
CC50 (HOP-92 [29]): > 100 µM
CC50 (NCI-H23 [30]): 68.2 µM
CC50 (HCT-116 [31]): 55.4 µM
CC50 (HCT-15): 8.18 µM
CC50 (HT-29): 53.2 µM
CC50 (SF-295 [32]): 74.6 µM
CC50 (SK-MEL-28): 49.1 µM
CC50 (SK-MEL-5 [33]): 8.49 µM
CC50 (NCI/ADR-RES [34]): > 100 µM
CC50 (CAKI-1): > 100 µM
CC50 (TK-10): > 100 µM

Source: ChEMBL document CHEMBL5634115, “Exploring novel anticancer pyrazole benzenesulfonamides featuring tail approach strategy as carbonic anhydrase inhibitors” (Eur J Med Chem, 2023)
